# Source: ChEMBL document CHEMBL4888484, “Replenishing the malaria drug discovery pipeline: Screening and hit evaluation of the MMV Hit Generation Library 1 (HGL1) against asexual blood stage Plasmodium falciparum ,using a nano luciferase reporter read-out” (2022)
# The whole screen tested about 150,000 compounds, of which about 540 (0.36%) showed an effect of 50% or more. The list shows a part of the results.
# System: Plasmodium falciparum
# Test: Primary screen in NF54 nanoGlo assay, in single point, at 2uM, 72h; a lower Z score goes with more inhibition
# Assay type: functional, Erythrocyte
# Conditions: timepoint 72 hour
Structure (SMILES),% Inhibition,Z score
COc1ccc2cc(C(=O)NCc3cnc4cnccn34)n(C)c2c1,-5%,0.61
Cc1cccc2c1C(C)CC2NCc1ncnn1C (configuration not stated),-13%,2.03
CC(C)C(C(=O)N1CCCC1C(=O)O)n1c(=O)[nH]c2ccccc2c1=O (configuration not stated),-5%,0.78
CC1CN(C(=O)C2CCc3[nH]nnc3C2)CCN1c1ccccc1F (configuration not stated),-8%,0.72
COc1ccc(NC(=O)[C@@]23CCC=C2N(C2CCCC2)C(=O)CC3)cc1,0%,-0.04
CN(C)C(=O)Cn1cccc(NC(=O)CNC(=O)OCc2ccccc2)c1=O,-11%,1.25
Cc1nc(C)c(-c2cccc3c2O[C@@H](CN)C3)s1,-5%,0.68
CC1(C)CN(C(=O)Cn2nccn2)C[C@]1(C)O,-8%,0.73
CC(O)CC(C)CNCc1sccc1Cl (configuration not stated),6%,-0.81
Cc1csc(NC(=O)C[C@H](C)n2cccn2)n1,-1%,0.17
O=C(c1ccccc1F)N1CCC[C@H](CN2CCCC2)CC1,-4%,0.64
CN1CCN(C(=O)[C@@H]2Cc3ccccc3O2)C(C)(C)C1=O,-6%,1.23
Cc1ccc(S(=O)(=O)N2CCC[C@H](Cn3c(C)nc4cccnc43)C2)cc1F,-2%,0.32
COc1cccc(CN2C(=O)NC3(CCC4(CC3)OCCO4)C2=O)c1Cl,-10%,1.83
CC1CCN(c2ncnc(Oc3ccccc3F)c2N)CC1,6%,-1.23
Cc1ncsc1C(=O)N1CCCCCC1,-2%,0.28
CCn1nc(C)cc1C(=O)N1CCCC[C@@H]1CCn1ccnc1,-8%,1.53
C[C@H]1CCCN(C(=O)c2ncccn2)C1,-8%,1.54
CNC(=O)[C@@H]1C[C@@H](NC(=O)c2sc(C)nc2C)CN1CCOC,-17%,1.67

Structure (SMILES),% Inhibition,Z score
O=C1CCn2c(CNc3ccccc3)ccc21,-3%,0.35
CN1CCC(CCN(C)Cc2cc3ccccc3s2)CC1,3%,-0.49
OC(COCc1ccc2c(c1)OCO2)CN1CCCC(c2nc3ccccc3s2)C1 (configuration not stated),-2%,0.22
CCc1ocnc1C(=O)N1CCCCCCC1,-15%,1.38
COc1cc(-c2nc3c([nH]2)c(-c2ccccc2)nn3C)cc2c1OCO2,-4%,0.58
C[C@@H](Cc1cccc(C(F)(F)F)c1)N1CCC(n2cc(C(=O)N3CCCCC3)nn2)CC1,-12%,1.76
CC(C)C[C@]1(CO)CCCN1C(=O)NCc1ncccc1S(C)(=O)=O,11%,-1.41
CCC(C)NC(=O)C(CC(N)=O)NC(=O)Cc1cccc(F)c1 (configuration not stated),13%,-1.46
COc1ccc(Cl)cc1NC(=O)N1CCC(c2nnc(-c3ccsc3)o2)CC1,11%,-1.24
CN(C)Cc1nc(C(=O)N[C@H]2CC[C@@H]3CCC[C@@H]32)cs1,2%,-0.32
CN1C(=O)COC12CCN(C(=O)c1cnc3cc[nH]c3c1)CC2,-6%,0.95
O=C(c1conc1C1CC1)N1CCC[C@H](CC(F)(F)F)C1,-3%,0.62
COC[C@H]1CCCN(C(=O)NCc2ccc(C)s2)CC1,-6%,0.72
Cc1cc(-c2ccc(C(=O)NC[C@H](O)CO)cc2)nc2cc3c(cc12)CCC3,-1%,0.22
CCc1nnc(NC(=O)NCc2cc(C)no2)s1,2%,-0.42
CCc1nnc(NCCc2nc(C)c(Cl)s2)o1,-12%,1.3
CCN1C[C@H](NC(=O)c2ccncc2C)[C@@H](OC)C1,-18%,1.59
COc1cccc(OCCN2Cc3nc(C)nc(O)c3C2)c1,-10%,1.34
Cc1nc(CN)cc(NCCNc2ccccc2)n1,-33%,2.92

Structure (SMILES),% Inhibition,Z score
Cc1cccc(OC2CCN(C(=O)c3ccn(C)c(=O)c3)CC2)c1,6%,-1.16
CCn1nc(-c2cccc(C(=O)N3CCc4n[nH]cc4C3)c2)nc1N(C)C,-1%,0.13
O=C1C[C@@H]2CCN(C3CCOCC3)C[C@@H]2CCOc2ccc(C(F)(F)F)cc2N1,-12%,1.86
CN(CC(=O)N(C)C1CCCCC1)C(=O)c1cc2cccn2cn1,-4%,0.77
O=C(CN1CCN(C(=O)CN(CC2CCCCC2)C2CC2)CC1)Nc1ccccc1C(F)(F)F,-4%,0.51
COCCn1cc(-c2c(C)nc3ccccn23)cn1,-9%,1.16
Cc1c(C#N)c(-c2ccccc2)nc(/C=C(/O)c2ccccc2)c1C(=O)NCc1ccccc1,3%,-0.4
NC(=O)N1CCC[C@H]1C(=O)NCc1cc(F)c(Cl)cc1F,-6%,0.77
COc1ccc(C(=O)NC(=N)c2ccccc2)cc1,-14%,1.83
Cc1cc(S(=O)(=O)N2C[C@H]3CC[C@@H](C2)[C@H]3N)c(C)s1,-12%,1.16
c1ccc2nc(N3CCCOCC3)cnc2c1,-3%,0.31
CCOC(=O)N1CCC(NC(=O)c2occc2C)CC1,-6%,1.08
CCc1nccc(CN2CCC(CCC(N)=O)CC2)n1,-5%,1.07
CCc1nc2ccccc2n1[C@@H](CC)C(=O)N1CCC(n2cnnc2)CC1,-8%,1.36
COc1c(Br)cccc1CCNC(=O)CC(F)(F)F,-5%,0.77
CC1(c2noc(C3=NN(Cc4ccc(F)cc4)C(=O)CC3)n2)CCC1,-7%,1.3
Cc1nc2ccccc2n1Cc1cc(C(=O)N2CCCCO2)n[nH]1,-31%,5.84
COc1ccc(CN2C(=O)COC[C@H]2C(=O)NCc2ccccc2F)c(OC)c1,1%,-0.06
